# Results taken from PubChem BioAssay AID1468 (National Center for Advancing Translational Sciences (NCATS), 2008).
# Hit rate of the full screen: of about 280,000 compounds, about 1,100 (0.39%) were called active. This list was built around the results that the source calls inconclusive (neither active nor inactive); the mix of calls is not that of the screen. Calls come from the whole dose curve; as a rule, active = well fitted inhibition curve with a large enough effect; inconclusive = small, poorly fitted or top-dose-only effect, or effect the other way; inactive = flat fitted curve, though single readings scatter. No potency is given beside an inconclusive call; the fits are too rough.
# Target: Microtubule-associated protein tau (Homo sapiens) (UniProt P10636)
# Assay: qHTS for Inhibitors of Tau Fibril Formation, Fluorescence Polarization; note: nearly all actives have a fitted effect of over 55% in size
# Conditions: K18 P301L tau heparin fibrillization, Alexa594 FP, 6 h; series mostly up to 57.7 µM; activity, negative = inhibition: at the top concentration
# Method in brief: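 K18 P301L tau (15 uM unlabeled/0.24 uM Alexa 594-labeled, final) + compound + heparin 20 uM final; 100 mM NaOAc pH 7; 6 hr 37 C; ThT 30 uM final added, 1 hr RT; FP ex 555/em 632 nm.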
# % is set by controls: 0 for no effect and ±100 for the full control effect; potency is the fitted concentration of half-maximal effect; tags give direction and shape of the fitted curve.
# Sequence of UniProt P10636 (P10636 whole entry, looked up): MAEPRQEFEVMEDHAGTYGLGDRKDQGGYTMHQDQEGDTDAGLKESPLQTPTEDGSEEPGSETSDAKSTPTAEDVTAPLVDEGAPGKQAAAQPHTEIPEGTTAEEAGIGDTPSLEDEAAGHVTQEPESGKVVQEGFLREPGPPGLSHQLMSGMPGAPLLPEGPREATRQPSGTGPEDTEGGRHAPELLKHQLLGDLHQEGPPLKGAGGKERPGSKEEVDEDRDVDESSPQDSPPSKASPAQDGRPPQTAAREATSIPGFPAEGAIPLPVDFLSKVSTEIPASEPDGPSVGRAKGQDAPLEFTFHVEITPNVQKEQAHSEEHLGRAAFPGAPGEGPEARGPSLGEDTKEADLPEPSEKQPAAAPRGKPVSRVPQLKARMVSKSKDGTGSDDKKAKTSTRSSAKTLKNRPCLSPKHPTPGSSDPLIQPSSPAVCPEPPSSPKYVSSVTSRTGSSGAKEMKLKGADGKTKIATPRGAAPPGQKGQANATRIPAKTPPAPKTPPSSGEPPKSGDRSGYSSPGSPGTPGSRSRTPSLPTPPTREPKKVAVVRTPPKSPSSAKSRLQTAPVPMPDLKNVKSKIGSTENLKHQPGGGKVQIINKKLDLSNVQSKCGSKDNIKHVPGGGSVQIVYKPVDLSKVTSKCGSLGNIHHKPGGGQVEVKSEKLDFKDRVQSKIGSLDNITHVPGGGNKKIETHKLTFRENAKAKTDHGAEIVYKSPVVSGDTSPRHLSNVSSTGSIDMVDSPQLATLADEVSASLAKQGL
Compound,Potency,"activity, negative = inhibition"
c1ccc2c(Nc3ccncc3)nc(-c3ccc4c(c3)OCO4)nc2c1,active: 10 µM,
COc1ccc(Nc2ncnc3c2cnn3Cc2ccc(C)cc2)cc1,"inconclusive [activator, partial curve]",
C[C@@H](C(=O)NCC1CC1)[C@H]1C[C@]1(C)[C@H](NC(=O)OCc1ccccc1)c1ccccc1,inactive,
CCc1cc2c(nc1CC)CCN(CC/C(C)=N/OC[C@@H](C)[C@H](OCc1ccccc1)C(C)C)C2,,inactive: 0.469% [at 11.6 µM]
CC(Cc1c[nH]c2ccccc12)C(=O)O (centres undefined),"inconclusive [inhibitor, single point]",
Cc1c2cc(O)c(=O)cc-2oc2cc(O)c(O)cc12,active: 10 µM,
CN1C(=O)/C(=N\OC(=O)c2cccc3ccccc23)c2ccccc21,"inconclusive [activator, single point]",
Cc1c2cnn(CC(=O)NC(C)C)c(=O)c2c(C)n1Cc1cccc(Cl)c1,,inactive: -2.99%
CCOc1cc2c(cc1OCC)C(c1ccccc1)N(c1ccccc1)C(=O)C2 (centres undefined),,inactive: -1.15%
Cc1cccc(NC(=O)CCc2ccc(C)o2)c1,,inactive: -1.44%
Fc1ccc(-c2cc(-c3nc(-c4ccc(Cl)cc4)no3)[nH]n2)cc1,"inconclusive [inhibitor, partial curve]",
COc1ccc(S(=O)(=O)c2c(C(=O)c3ccc(C)c(C)c3)cnc3ccc(C)cc23)cc1,"inconclusive [inhibitor, single point]",
Cc1c(C(=O)OC2CCC(C)CC2)[nH]c2c1C(=O)CC(c1ccc(N(C)C)cc1)C2 (centres undefined),"inconclusive [activator, partial curve]",
CN(C)S(=O)(=O)c1cccc(NC(=O)COC(=O)c2cc(-c3cccc(Br)c3)nc3ccccc23)c1,active: 12.6 µM,
CCN(CC(O)CON=C1c2ccccc2-c2ccccc21)S(=O)(=O)c1ccc(Cl)cc1 (centres undefined),"inconclusive [inhibitor, partial curve]",
O=C(CSc1nnc(NC(=O)c2ccco2)s1)Nc1ccc2c(c1)OCCO2,"inconclusive [inhibitor, single point]",
N#CC1=C(N)C(C#N)(C#N)C(c2cccnc2)C2CN(C(=O)OCc3ccccc3)CC=C12 (centres undefined),"inconclusive [inhibitor, partial curve]",
CCC(Sc1nnc2c(n1)[nH]c1ccccc12)C(=O)Nc1ccccc1OC (centres undefined),"inconclusive [inhibitor, partial curve]",
O=C(Nc1ccc(Cl)cc1)Nc1nc(-c2sccc2Br)cs1,"inconclusive [inhibitor, single point]",
